# Reference: patent publication US20100075953A1, “SUBSTITUTED PIPERAZINES, (1,4) DIAZEPINES, AND 2,5-DIAZABICYCLO (2.2.1) HEPTANES AS HISTAMINE H1 AND/OR H3 ANTAGONISTS OR HISTAMINE H3 REVERSE ANTAGONISTS” (Glaxo Group Limited, priority 2002, published 2010)
# Some results were stated once for a whole list of compounds, not compound by compound.
# Molecular target: histamine H3 receptor (Homo sapiens, UniProt Q9Y5N1)
# Experiment: Histamine H3 functional antagonist assay
# Conditions: membranes of CHO K1 cells expressing human H3, [35S]GTPgammaS SPA, histamine 0.3 μM
# Chain of histamine H3 receptor (Q9Y5N1 whole entry): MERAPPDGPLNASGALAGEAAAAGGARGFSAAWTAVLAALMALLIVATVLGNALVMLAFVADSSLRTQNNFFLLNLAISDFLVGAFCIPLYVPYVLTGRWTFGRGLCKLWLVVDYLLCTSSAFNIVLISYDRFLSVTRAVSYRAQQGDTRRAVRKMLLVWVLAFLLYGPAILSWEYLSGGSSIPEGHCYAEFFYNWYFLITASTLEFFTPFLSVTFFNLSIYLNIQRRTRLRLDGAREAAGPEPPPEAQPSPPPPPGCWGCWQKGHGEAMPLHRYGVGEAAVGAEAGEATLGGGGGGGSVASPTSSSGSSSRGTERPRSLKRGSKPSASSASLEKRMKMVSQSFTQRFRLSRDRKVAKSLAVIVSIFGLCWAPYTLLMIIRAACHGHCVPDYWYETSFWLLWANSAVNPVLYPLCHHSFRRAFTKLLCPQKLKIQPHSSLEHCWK
SMILES,antagonism in the histamine H3 functional antagonist assay (pKb),also measured
"N#Cc1ccc(C(=O)N2CCN(c3ccc(OCCCN4CCCCC4)cc3C#N)CC2)cc1 [Example E307, 2-{4-[(4-Cyanophenyl)carbonyl]-1-piperazinyl}-5-{[3-(1-piperidinyl)propyl]oxy}benzonitrile]",> 6.5,–
"C[C@@H]1CN(c2ccc(OCCCN3CCCCC3)cc2)[C@H](C)CN1C(=O)c1ccncc1 [Example E456, 1-{(2R,5R)-2,5-Dimethyl-4-[4-(3-piperidin-1-yl-propoxy)-phenyl]-piperazin-1-yl}-1-pyridin-4-yl-methanone]",> 8.4,antagonism in the histamine H3 functional antagonist assay (pKb) (listed as Example 456): > 6.5 pKb
"O=C(c1nccc2ccccc12)N1CCN(c2ccc(OCCCN3CCCCC3)cc2)CC1 [Example E348, 1-{[4-(4-{[3-(1-Piperidinyl)propyl]oxy}phenyl)-1-piperazinyl]carbonyl}isoquinoline]",> 8.4,antagonism in the histamine H3 functional antagonist assay (pKb) (listed as Example 348): > 6.5 pKb
"O=C(c1ccccc1)N1CCN(c2cccc(OCCCN3CCCCC3)c2)CC1 [Example E38, 1-Phenyl-1-{4-[3-(3-piperidin-1-yl-propoxy)-phenyl]-piperazin-1-yl}-methanone]",> 6.5,–
"O=C(c1ccc(Br)cc1)N1CCN(c2ccc(OCCCN3CCCCC3)cc2)CC1 [Example E338, 1-[(4-Bromophenyl)carbonyl]-4-(4-{[3-(1-piperidinyl)propyl]oxy}phenyl)piperazine]",> 6.5,–
"N#Cc1cc(OCCCN2CCCCC2)ccc1N1CCN(C(=O)c2ccc(F)cc2)CC1 [Example E308, 2-{4-[(4-Fluorophenyl)carbonyl]-1-piperazinyl}-5-{[3-(1-piperidinyl)propyl]oxy}benzonitrile]",> 6.5,–
"CC(C)(C(=O)N1CCN(c2ccc(OCCCN3CCCCC3)cc2)CC1)c1ccccc1 [Example E413, 1-(2-Methyl-2-phenylpropanoyl)-4-(4-{[3-(1-piperidinyl)propyl]oxy}phenyl)piperazine]",> 6.5,–
"N#Cc1ccc(C(=O)N2CC3CC2CN3c2ccc(OCCCN3CCCCC3)cc2)cc1 (stereo not shown) [Example E460, 4-(1-{5-[4-(3-Piperidin-1-yl-propoxy)-phenyl]-2,5-diaza-bicyclo[2.2.1]hept-2-yl}-methanoyl)benzonitrile]",> 6.5,–
"O=C(Cn1cnnn1)N1CCN(c2ccc(OCCCN3CCCCC3)cc2)CC1 [Example E379, 1-(4-{[3-(1-Piperidinyl)propyl]oxy}phenyl)-4-(1H-tetrazol-1-ylacetyl)piperazine]",> 6.5,–
"O=C(c1cnc2ccccc2n1)N1CCN(c2ccc(OCCCN3CCCCC3)cc2)CC1 [Example E392, 2-{[4-(4-{[3-(1-Piperidinyl)propyl]oxy}phenyl)-1-piperazinyl]carbonyl}quinoxaline]",> 8.4,antagonism in the histamine H3 functional antagonist assay (pKb) (listed as Example 392): > 6.5 pKb
"O=S(=O)(c1ccc(Cl)c(Cl)c1)N1CCCN(Cc2ccc(OCCCN3CCCCC3)cc2)CC1 [Example E30, 1-(3,4-Dichloro-benzenesulfonyl)-4-[4-(3-piperidin-1-yl-propoxy)-benzyl]-[1,4]diazepane]",> 6.5,–
"O=C(c1ccc(C(=O)N2CCN(c3ccc(OCCCN4CCCCC4)cc3)CC2)cc1)N1CCCCC1 [Example E435, 1-{[4-(1-Piperidinylcarbonyl)phenyl]carbonyl}-4-(4-{[3-(1-piperidinyl)propyl]oxy}phenyl)piperazine]",> 8.4,antagonism in the histamine H3 functional antagonist assay (pKb) (listed as Example 435): > 6.5 pKb
"N#Cc1ccc(C(=O)N2CCN(Cc3ccc(OCCCN4CCCCC4)cc3)CC2)cc1 [Example E8, 4-(1-{4-[4-(3-Piperidin-1-yl-propoxy)-benzyl]-piperazin-1-yl}-methanoyl)-benzonitrile]",> 6.5,–
"O=C(c1ccc(Br)cc1)N1CCN(Cc2ccc(OCCCN3CCCCC3)cc2)CC1 [Example E10, 1-(4-Bromo-phenyl)-1-{4-[4-(3-piperidin-1-yl-propoxy)-benzyl]-piperazin-1-yl}-methanone]",> 8.4,antagonism in the histamine H3 functional antagonist assay (pKb) (listed as Example E10): > 6.5 pKb
"O=S(=O)(c1ccccc1)N1CCCN(Cc2ccc(OCCCN3CCCCC3)cc2)CC1 [Example E25, 1-Benzenesulfonyl-4-[4-(3-piperidin-1-yl-propoxy)-benzyl]-[1,4]diazepane]",> 6.5,–
"O=C(c1cc(Cl)cc(Cl)c1)N1CCCN(Cc2ccc(OCCCN3CCCCC3)cc2)CC1 [Example E15, 1-(3,5-Dichloro-phenyl)-1-{4-[4-(3-piperidin-1-yl-propoxy)-benzyl]-[1,4]diazepan-1-yl}-methanone]",> 6.5,–
"O=C(c1ccc(Br)cc1F)N1CCN(c2ccc(OCCCN3CCCCC3)cc2)CC1 [Example E367, 1-[(4-Bromo-2-fluorophenyl)carbonyl]-4-(4-{[3-(1-piperidinyl)propyl]oxy}phenyl)piperazine]",> 6.5,–
"O=C(CC1CC1)N1CCN(c2ccc(OCCCN3CCCCC3)cc2)CC1 [Example E356, 1-(Cyclopropylacetyl)-4-(4-{[3-(1-piperidinyl)propyl]oxy}phenyl)piperazine]",> 6.5,–
"O=C(Nc1ccc(Cl)c(Cl)c1)N1CCN(c2ccc(OCCCN3CCCCC3)cc2)CC1 [Example E47, 4-[4-(3-Piperidin-1-yl-propoxy)-phenyl] piperazine-1-carboxylic acid (3,4-dichloro-phenyl)-amide]",> 8.4,antagonism in the histamine H3 functional antagonist assay (pKb) (listed as Example E47): > 6.5 pKb
"O=C(c1csnn1)N1CCN(c2ccc(OCCCN3CCCCC3)cc2)CC1 [Example E407, 1-(4-{[3-(1-Piperidinyl)propyl]oxy}phenyl)-4-(1,2,3-thiadiazol-4-ylcarbonyl)piperazine]",> 8.4,antagonism in the histamine H3 functional antagonist assay (pKb) (listed as Example 407): > 6.5 pKb
"CC(C)(C)OC(=O)N1CCN(C(=O)N2CCN(c3ccc(OCCCN4CCCCC4)cc3)CC2)CC1 [Example E283, 1,1-Dimethylethyl 4-{[4-(4-{[3-(1-piperidinyl)propyl]oxy}phenyl)-1-piperazinyl]carbonyl}-1-piperazinecarboxylate]",> 6.5,–
"CC(C)N1CCC(Oc2ccc(N3CCN(C(=O)c4ccc(C#N)cc4)CC3)cc2)CC1 [Example E264, 4-{[4-(4-{[1-(1-Methylethyl}4-piperidinyl]oxy}phenyl)-1-piperazinyl]carbonyl}benzonitrile]",> 6.5,–
"O=C(N1CCN(c2ccc(OCCCN3CCCCC3)cc2)CC1)N1CCC(c2ccccc2)C1 (stereo not shown) [Example E280, 1-[(3-Phenyl-1-pyrrolidinyl)carbonyl]-4-(4-{[3-(1-piperidinyl)propyl]oxy}phenyl)piperazine]",> 8.4,antagonism in the histamine H3 functional antagonist assay (pKb) (listed as Example 280): > 6.5 pKb
"CC(C)N1CCC(Oc2ccc(CN3CCN(C(=O)c4ccccc4)CC3)cc2)CC1 [Example E33, 1-{4-[4-(1-Isopropyl-piperidin-4-yloxy)-benzyl]-piperazin-1-yl}-1-phenyl-methanone]",> 8.4,antagonism in the histamine H3 functional antagonist assay (pKb) (listed as Example E33): > 6.5 pKb
"Cc1nc(C)n(CC(=O)N2CCN(c3ccc(OCCCN4CCCCC4)cc3)CC2)n1 [Example E428, 1-[(3,5-Dimethyl-1H-1,2,4-triazol-1-yl)acetyl]-4-(4-{[3-(1-piperidinyl)propyl]oxy}phenyl)piperazine]",> 6.5,–
"CC1CN(c2ccc(OCCCN3CCCCC3)cc2)[C@H](C)CN1C(=O)N1CCOCC1 (stereo in doubt) [Example E459, 1-{(2R,5R)-2,5-Dimethyl-4-[4-(3-piperidin-1-yl-propoxy)-phenyl]-piperazin-1-yl}-1-morpholin-4-yl-methanone]",> 8.4,antagonism in the histamine H3 functional antagonist assay (pKb) (listed as Example 459): > 6.5 pKb
"Cc1cc(C(=O)N2CCN(c3ccc(OCCCN4CCCCC4)cc3)CC2)cc(=O)[nH]1 [Example E378, 6-Methyl-4-{[4-(4-{[3-(1-piperidinyl)propyl]oxy}phenyl)-1-piperazinyl]carbonyl}-2(1H)-pyridinone]",> 8.4,antagonism in the histamine H3 functional antagonist assay (pKb) (listed as Example 378): > 6.5 pKb
"O=C(Cn1ccnn1)N1CCN(c2ccc(OCCCN3CCCCC3)cc2)CC1 [Example E382, 1-(4-{[3-(1-Piperidinyl)propyl]oxy}phenyl)-4-(1H-1,2,3-triazol-1-ylacetyl)piperazine]",> 6.5,–
"O=C(c1ccc(Cl)c(Cl)c1)N1CCN(Cc2ccc(OCCCN3CCCCC3)cc2)CC1 [Example E7, 1-(3,4-Dichloro-phenyl)-1-{4-[4-(3-piperidin-1-yl-propoxy)-benzyl]-piperazin-1-yl}-methanone]",> 6.5,–
